Positions count from the first letter of the chain named. Names may count otherwise. These are yes or no findings as the source states them, for the method shown. Binding seen in cells or lysates may run through a third protein. Some binding calls cover weakened binding; strength is not graded here. For part of these data: Sequences can lack the tags named with a protein. One block for each binder: values may come before it.
Key:
[1] = biological target: Bcl-2 G145A (transfected, HEK-293T) (UniProt P10415); experiment: co-IP; HEK-293T cells transfected with Flag-MLKL or Flag-MLKL L176A and Bcl-2 or Bcl-2 G145A; Bcl-2 antibodies used to immunoprecipitate; Flag-MLKL detected by blot
[2] = biological target: Bcl-2 (transfected, HEK-293T) (UniProt P10415); experiment: as above
[3] = biological target: Bcl-2 (endogenous, THP-1 cells) (human (endogenous in THP-1)) (UniProt P10415); experiment: co-IP; endogenous proteins; Bcl-2 immunoprecipitated from THP-1 lysates; cells basal or LPS 50 ng/ml 5 h + nigericin 5 uM 30 min (Fig. 1b); PMA treated cells with or without TNFa 20 ng/ml, 100 nM Smac mimetic, 20 uM z-VAD-FMK for 3 h (Fig. 5d); lysis buffer 20 mM HEPES pH 7.4, 0.5% Triton X-100, 0.5% CHAPS, 10% glycerol; washed eight times

Amino acid sequences for entries named in this document (tags omitted). A change or cut given only in a name is not applied to a line headed by its entry.
UniProt P10415: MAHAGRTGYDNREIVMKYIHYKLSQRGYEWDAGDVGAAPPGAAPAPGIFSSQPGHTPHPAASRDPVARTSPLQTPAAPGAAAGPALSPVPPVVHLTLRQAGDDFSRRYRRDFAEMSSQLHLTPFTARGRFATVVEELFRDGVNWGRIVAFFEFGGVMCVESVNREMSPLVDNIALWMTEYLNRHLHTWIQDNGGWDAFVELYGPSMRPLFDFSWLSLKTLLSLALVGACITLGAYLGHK

B2: MLKL (endogenous, THP-1 cells) (protein, UniProt Q8NB16 1-471)
chain: MENLKHIITLGQVIHKRCEEMKYCKKQCRRLGHRVLGLIKPLEMLQDQGKRSVPSEKLTTAMNRFKAALEEANGEIEKFSNRSNICRFLTASQDKILFKDVNRKLSDVWKELSLLLQVEQRMPVSPISQGASWAQEDQQDADEDRRAFQMLRRDNEKIEASLRRLEINMKEIKETLRQYLPPKCMQEIPQEQIKEIKKEQLSGSPWILLRENEVSTLYKGEYHRAPVAIKVFKKLQAGSIAIVRQTFNKEIKTMKKFESPNILRIFGICIDETVTPPQFSIVMEYCELGTLRELLDREKDLTLGKRMVLVLGAARGLYRLHHSEAPELHGKIRSSNFLVTQGYQVKLAGFELRKTQTSMSLGTTREKTDRVKSTAYLSPQELEDVFYQYDVKSEIYSFGIVLWEIATGDIPFQGCNSEKIRKLVAVKRQQEPLGEDCPSELREIIDECRAHDPSVRPSVDEILKKLSTFSK
binding [3]: binds

B3: Flag-MLKL L176A (protein, UniProt Q8NB16 1-471)
chain: B2 chain with L176A
binding [1]: binds
binding [2]: binds

More lines, now with the values ahead:

binding [1]: binds
binding [2]: binds
B1: Flag-MLKL (protein, UniProt Q8NB16 1-471)
chain: B2 chain

binding [3]: binds
B4: gasdermin D (endogenous, THP-1 cells) (protein, UniProt P57764 1-484)
chain: MGSAFERVVRRVVQELDHGGEFIPVTSLQSSTGFQPYCLVVRKPSSSWFWKPRYKCVNLSIKDILEPDAAEPDVQRGRSFHFYDAMDGQIQGSVELAAPGQAKIAGGAAVSDSSSTSMNVYSLSVDPNTWQTLLHERHLRQPEHKVLQQLRSRGDNVYVVTEVLQTQKEVEVTRTHKREGSGRFSLPGATCLQGEGQGHLSQKKTVTIPSGSTLAFRVAQLVIDSDLDVLLFPDKKQRTFQPPATGHKRSTSEGAWPQLPSGLSMMRCLHNFLTDGVPAEGAFTEDFQGLRAEVETISKELELLDRELCQLLLEGLEGVLRDQLALRALEEALEQGQSLGPVEPLDGPAGAVLECLVLSSGMLVPELAIPVVYLLGALTMLSETQHKLLAEALESQTLLGPLELVGSLLEQSAPWQERSTMSLPPGLLGNSWGEGAPAWVLLDECGLELGEDTPHVCWEPQAQGRMCALYASLALLSGLSQEPH

From article PMC6901440
